Experimental data reported in PubChem BioAssay AID889 (National Center for Advancing Translational Sciences (NCATS), 2007).
Out of some 75,000 compounds screened, about 15 (0.02%) were called active. The inconclusive results got no clear call from the source; some entries with a clear call stand among them for comparison. Calls follow the shape of the dose curve; as a rule, active = well fitted inhibition curve with a large enough effect in the main read-out, with a control signal flat (not every such curve was filed as active); inconclusive = small, poorly fitted or top-dose-only effect, or a change in a side signal; inactive = flat fitted curve, though single readings scatter. Where the call is inconclusive, the potency comes from a doubtful curve fit. A note “side channel” means that the fit belongs to a control or component signal, not to the main read-out.

These compounds were tested against Caspase-7 (Homo sapiens) (UniProt P55210) (assay: qHTS Assay for Allosteric/Competitive Inhibitors of Caspase-7). Settings: recombinant caspase-7, Ac-DEVD-AFC fluorescence rate; activity change, negative = inhibition: at 57.5 µM (top of the series) unless noted.
For activity change, negative = inhibition in this document: % of control where 0% means no effect.
Potency is read from the fitted curve at half-maximal effect; tags tell the direction and shape of the fitted curve or compound fluorescence and quenching.

Sequence of UniProt P55210 (P55210 whole entry, looked up): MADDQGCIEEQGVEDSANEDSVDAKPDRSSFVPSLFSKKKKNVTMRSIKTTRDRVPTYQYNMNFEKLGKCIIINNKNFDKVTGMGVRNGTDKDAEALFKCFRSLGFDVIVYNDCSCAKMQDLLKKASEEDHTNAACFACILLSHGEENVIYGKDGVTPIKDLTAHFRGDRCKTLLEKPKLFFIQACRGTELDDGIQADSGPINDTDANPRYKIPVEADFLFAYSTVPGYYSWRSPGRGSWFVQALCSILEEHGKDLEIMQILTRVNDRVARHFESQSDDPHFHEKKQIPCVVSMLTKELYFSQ

Row | SMILES | Potency | activity change, negative = inhibition
1 | Cc1ccccc1-c1nc(N2CCOCC2)c2ccccc2n1 | inconclusive: 31.6 µM [inhibitor, single point] | –
2 | COc1ccc(-c2nc3cnc(N4CCN(C)CC4)nc3n(Cc3ccc(F)cc3)c2=O)cc1 | inconclusive: 15.8 µM [fluorescent, side channel, partial curve] | –
3 | CC(=O)Nc1nn(C)c2nc3cc(C)ccc3cc12 | inconclusive: 25.1 µM [fluorescent, partial curve] | –
4 | COc1ccc(CCN(C)CCCOc2ccc(S(=O)(=O)c3[nH]c4ccccc4c3C(C)C)cc2)cc1OC | – | inactive: 0.677%
5 | CCCCNC(=O)c1cc2c(=O)n3cccc(C)c3nc2n1C | inconclusive: 3.98 µM [inhibitor, single point] | –
6 | CCCCn1c(NC(=O)CC)c(C#N)c2nc3ccccc3nc21 | inconclusive: 7.94 µM [fluorescent, side channel, partial curve] | –
7 | Cc1ccc(-c2cc(C(=O)Nc3cccnc3)c3ccccc3n2)o1 | inconclusive: 15.8 µM [fluorescent, partial curve] | –
8 | COCCn1c(=O)c(-c2ccc(OC)cc2)nc2cnc(OCc3ccccc3)nc21 | inconclusive: 15.8 µM [inhibitor, partial curve] | –
9 | CCCCCc1nnc(NC(=O)C2CCCO2)s1 (stereo not given) | – | inactive: 0.329%
10 | COC(=O)NC(c1ccc(F)cc1)C(C(C)=O)C(=O)OC (stereo not given) | – | inactive: 1.51% [at 11.5 µM]
11 | Cc1cc(C)c2c(n1)nn1c(N3CCN(Cc4ccccc4)CC3)cc(C)nc21 | inconclusive: 10 µM [inhibitor, partial curve] | –
12 | Cc1cc(O)c(-c2n[nH]c3c2C(c2cccc(O)c2)N(Cc2cccnc2)C3=O)cc1Cl (stereo not given) | active: 31.6 µM | –
13 | CC1(C)CC(=O)C2=C(C1)N(CCN1CCOCC1)C1=C(C(=O)CC(C)(C)C1)C2c1ccc(Cl)cc1 | inconclusive: 2.51 µM [fluorescent, full curve] | –
14 | COc1cccc(Nc2ncc3ncc(=O)n(Cc4cccs4)c3n2)c1 | inconclusive: 31.6 µM [fluorescent, single point] | –
15 | NCS(=O)(=O)O | – | inactive: 0.509% [at 11.5 µM]
16 | Cc1n[nH]c(C)c1N1C(=O)c2cccc3c(N4CCCCCC4)ccc(c23)C1=O | inconclusive: 20 µM [fluorescent, side channel, partial curve] | –
17 | CCOC(=O)OCC1C=C[C@H](c2cc(-c3ccccc3)ccc2O)C(c2ccc(C(C)=O)cc2)O1 (stereo not given in full) | – | inactive: -0.916% [at 11.5 µM]
18 | CC(C)OC(=O)CC(=O)CSc1nc2c(cc1C#N)CCCC2 | inconclusive: 15.8 µM [fluorescent, partial curve] | –
19 | Cc1ccc(-c2[nH]c(=O)n3ccncc23)s1 | inconclusive: 20 µM [inhibitor, single point] | –
20 | COc1ncc2nc(CCc3ccccc3)c(=O)n(Cc3cccs3)c2n1 | – | inactive: -3.49%

Row | SMILES | Potency | activity change, negative = inhibition
21 | COc1ncc2nc(-c3cccs3)c(=O)n(CCC#N)c2n1 | inconclusive: 5.01 µM [fluorescent, side channel, partial curve] | –
22 | N#CC1=C(N)OC2=C(CCC/C2=C/c2ccoc2)C1c1ccoc1 (stereo not given) | inconclusive: 31.6 µM [inhibitor, single point] | –
23 | N#CC1=C(N)C(C#N)(C#N)[C@H](c2ccoc2)[C@H]2CN(Cc3ccccc3)CC=C12 | inconclusive: 5.01 µM [fluorescent, partial curve] | –
24 | CCNc1ncc2nc(-c3cccs3)c(=O)n(Cc3cccs3)c2n1 | inconclusive: 2 µM [fluorescent, side channel, full curve] | –
25 | O=C(O)c1ccc(S(=O)(=O)c2ccc3c(c2)C(=O)N(CC2CCCO2)C3=O)cc1 (stereo not given) | – | inactive: -0.958%
26 | N=C1CCC[C@@H]1C(=S)SCCC(N)=O | – | inactive: -0.317% [at 11.5 µM]
27 | COc1ccc(-c2nc3cnc(Oc4cccc(Cl)c4)nc3n(C3CC3)c2=O)cc1 | inconclusive: 12.6 µM [fluorescent, side channel, partial curve] | –
28 | COC(C1CCCCC1)C(C)C(OCc1cccc(Br)c1)C(C)CO (stereo not given) | – | inactive: -1.51% [at 11.5 µM]
29 | Cc1cc(-n2c(=O)c(C#N)cc3c(=O)n4cccc(C)c4nc32)no1 | inconclusive: 3.16 µM [fluorescent, side channel, partial curve] | –
30 | CCCn1c(=NC(=O)c2ccc3c(c2)OCO3)c(C#N)cc2c(=O)n3cccc(C)c3nc21 | inconclusive: 6.31 µM [fluorescent, side channel, partial curve] | –
31 | CCOC(=O)c1c(NC(=O)c2ccco2)sc(C(=O)N2CCCC2)c1C | – | inactive: -0.0861%
32 | Cc1noc(C)c1C(=O)N1CCC2(CC1)CN(c1ncccn1)C2 | – | inactive: -0.0235%
33 | CN1CCc2c(sc3c2C(=O)NC(c2cccc(OC(=O)c4cccs4)c2)N3)C1 (stereo not given) | inconclusive: 25.1 µM [fluorescent, partial curve] | –
34 | CCOc1ccc2nc(N3CCCN(C(=O)Nc4ccccc4C)CC3)c(C#N)cc2c1 | inconclusive: 12.6 µM [fluorescent, side channel, partial curve] | –
35 | CCC(=O)Nc1c(C#N)c2nc3ccccc3nc2n1-c1ccc(C)cc1 | inconclusive: 3.16 µM [fluorescent, side channel, full curve] | –
36 | COCCn1c(=O)c(-c2ccccc2)nc2cnc(N3CCNCC3)nc21 | inconclusive: 7.94 µM [fluorescent, side channel, partial curve] | –
37 | O=C(Nc1ccc(NC(=O)C2CC2)nc1)c1ccccn1 | – | inactive: -1.62%
38 | COc1cccc(Nc2ncc3nc(CCc4ccccc4)c(=O)n(C)c3n2)c1 | inconclusive: 3.98 µM [fluorescent, side channel, full curve] | –
39 | O=C(OC1CCCCC1)c1ccc2c(c1)C1C=CCC1C(C(=O)O)N2 (stereo not given) | inconclusive: 25.1 µM [inhibitor, partial curve] | –
40 | CN(C)c1ncc2ncc(=O)n(C[C@H]3CCCO3)c2n1 | inconclusive: 20 µM [fluorescent, side channel, partial curve] | –
